# From patent US20140271458A1 (AbbVie / Abbott, published 2014)
# T1: Recombinant Human IL-17 (human, UniProt Q16552 20-155, limits assumed)
# T1 sequence (looked up): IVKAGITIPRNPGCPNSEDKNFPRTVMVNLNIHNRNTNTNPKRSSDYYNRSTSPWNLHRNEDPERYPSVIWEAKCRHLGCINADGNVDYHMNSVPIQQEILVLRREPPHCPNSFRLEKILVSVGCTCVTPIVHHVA
# Experiments:
# [1] = target: Recombinant Human IL-1b (human, UniProt P01584 117-269); assay: cell-based or functional assay
# [2] = target: T1, Recombinant Human IL-17; assay: cell-based or functional assay
# Chain of UniProt P01584 (P01584 117-269 limits assumed): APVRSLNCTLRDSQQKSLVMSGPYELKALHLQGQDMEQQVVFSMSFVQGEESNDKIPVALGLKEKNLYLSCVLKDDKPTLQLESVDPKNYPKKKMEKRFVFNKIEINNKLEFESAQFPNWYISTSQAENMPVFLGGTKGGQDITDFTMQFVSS
N-Terminal VD IL-1β Neutralization Assay (IC50 nM) [1],C-Terminal VD IL17 Neutralization Assay (IC50 nM) [2],Binder
0.115 nM,0.549 nM,"DVD2439 (bispecific antibody, human IgG1) heavy: EVQLVESGGGLVQPGGSLRLSCAVSGFTLSDYGVSWIRQAPGKGLEWLGLIWGGGDTYYNSPLKSRLTISKDNSKSTVYLQMNSLRAEDTAVYYCAKQRTLWGYDLYGMDYWGQGTLVTVSSASTKGPEVQLVQSGAEVKKPGSSVKVSCKASGGSFGGYGIGWVRQAPGQGLEWMGGITPFFGFADYAQKFQGRVTITADESTTTAYMELSGLTSDDTAVYYCARDPNEFWGGYYSTHDFDSWGQGTTVTVSS[human IgG1 constant region left out] light: ETTVTQSPSSLSASVGDRVTITCITSTDIDVDMNWYQQKPGKPPKLLISQGNTLRPGVPSRFSSSGSGTDFTFTISSLQPEDFATYYCLQSDNLPLTFGQGTKLEIKRTVAAPEIVLTQSPDFQSVTPKEKVTITCRASQDIGSELHWYQQKPDQPPKLLIKYASHSTSGVPSRFSGSGSGTDFTLTINGLEAEDAGTYYCHQTDSLPYTFGPGTKVDIKRTVAAPSVFIFPPSDEQLKSGTASVVCLLNNFYPREAKVQWKVDNALQSGNSQESVTEQDSKDSTYSLSSTLTLSKADYEKHKVYACEVTHQGLSSPVTKSFNRGEC"
0.222 nM,0.055 nM,"DVD2440 (bispecific antibody, human IgG1) heavy: EVQLVESGGGLVQPGGSLRLSCAVSGFTLSDYGVSWIRQAPGKGLEWLGLIWGGGDTYYNSPLKSRLTISKDNSKSTVYLQMNSLRAEDTAVYYCAKQRTLWGYDLYGMDYWGQGTLVTVSSASTKGPEVQLVQSGAEVKKPGSSVKVSCKASGGSFGGYGIGWVRQAPGQGLEWMGGITPFFGFADYAQKFQGRVTITADESTTTAYMELSGLTSDDTAVYYCARDPNEFWGGYYSTHDFDSWGQGTTVTVSS[human IgG1 constant region left out] light: ETTVTQSPSSLSASVGDRVTITCITSTDIDVDMNWYQQKPGKPPKLLISQGNTLRPGVPSRFSSSGSGTDFTFTISSLQPEDFATYYCLQSDNLPLTFGQGTKLEIKRTVAAPSVFIFPPEIVLTQSPDFQSVTPKEKVTITCRASQDIGSELHWYQQKPDQPPKLLIKYASHSTSGVPSRFSGSGSGTDFTLTINGLEAEDAGTYYCHQTDSLPYTFGPGTKVDIKRTVAAPSVFIFPPSDEQLKSGTASVVCLLNNFYPREAKVQWKVDNALQSGNSQESVTEQDSKDSTYSLSSTLTLSKADYEKHKVYACEVTHQGLSSPVTKSFNRGEC"
0.16 nM,0.087 nM,"DVD2441 (bispecific antibody, human IgG1) heavy: EVQLVESGGGLVQPGGSLRLSCAVSGFTLSDYGVSWIRQAPGKGLEWLGLIWGGGDTYYNSPLKSRLTISKDNSKSTVYLQMNSLRAEDTAVYYCAKQRTLWGYDLYGMDYWGQGTLVTVSSASTKGPSVFPLAPEVQLVQSGAEVKKPGSSVKVSCKASGGSFGGYGIGWVRQAPGQGLEWMGGITPFFGFADYAQKFQGRVTITADESTTTAYMELSGLTSDDTAVYYCARDPNEFWGGYYSTHDFDSWGQGTTVTVSS[human IgG1 constant region left out] light: ETTVTQSPSSLSASVGDRVTITCITSTDIDVDMNWYQQKPGKPPKLLISQGNTLRPGVPSRFSSSGSGTDFTFTISSLQPEDFATYYCLQSDNLPLTFGQGTKLEIKRTVAAPEIVLTQSPDFQSVTPKEKVTITCRASQDIGSELHWYQQKPDQPPKLLIKYASHSTSGVPSRFSGSGSGTDFTLTINGLEAEDAGTYYCHQTDSLPYTFGPGTKVDIKRTVAAPSVFIFPPSDEQLKSGTASVVCLLNNFYPREAKVQWKVDNALQSGNSQESVTEQDSKDSTYSLSSTLTLSKADYEKHKVYACEVTHQGLSSPVTKSFNRGEC"
0.273 nM,0.863 nM,"DVD2435 (bispecific antibody, human IgG1) heavy: EVQLQESGPGLVKPSETLSLTCTVSGFSLSDYGVSWIRQPPGKGLEWLGLIWGGGDTYYNSPLKSRLTISKDNSKSQVSLKLSSVTAADTAVYYCAKQRTLWGYDLYGMDYWGQGTLVTVSSASTKGPEVQLVQSGAEVKKPGSSVKVSCKASGGSFGGYGIGWVRQAPGQGLEWMGGITPFFGFADYAQKFQGRVTITADESTTTAYMELSGLTSDDTAVYYCARDPNEFWGGYYSTHDFDSWGQGTTVTVSS[human IgG1 constant region left out] light: DTVVTQSPAFLSVTPGEKVTITCITSTDIDVDMNWYQQKPDQPPKLLISQGNTLRPGVPSRFSSSGSGTDFTFTISSLEAEDAATYYCLQSDNLPLTFGQGTKLEIKRTVAAPEIVLTQSPDFQSVTPKEKVTITCRASQDIGSELHWYQQKPDQPPKLLIKYASHSTSGVPSRFSGSGSGTDFTLTINGLEAEDAGTYYCHQTDSLPYTFGPGTKVDIKRTVAAPSVFIFPPSDEQLKSGTASVVCLLNNFYPREAKVQWKVDNALQSGNSQESVTEQDSKDSTYSLSSTLTLSKADYEKHKVYACEVTHQGLSSPVTKSFNRGEC"
0.191 nM,0.042 nM,"DVD2436 (bispecific antibody, human IgG1) heavy: EVQLQESGPGLVKPSETLSLTCTVSGFSLSDYGVSWIRQPPGKGLEWLGLIWGGGDTYYNSPLKSRLTISKDNSKSQVSLKLSSVTAADTAVYYCAKQRTLWGYDLYGMDYWGQGTLVTVSSASTKGPEVQLVQSGAEVKKPGSSVKVSCKASGGSFGGYGIGWVRQAPGQGLEWMGGITPFFGFADYAQKFQGRVTITADESTTTAYMELSGLTSDDTAVYYCARDPNEFWGGYYSTHDFDSWGQGTTVTVSS[human IgG1 constant region left out] light: DTVVTQSPAFLSVTPGEKVTITCITSTDIDVDMNWYQQKPDQPPKLLISQGNTLRPGVPSRFSSSGSGTDFTFTISSLEAEDAATYYCLQSDNLPLTFGQGTKLEIKRTVAAPSVFIFPPEIVLTQSPDFQSVTPKEKVTITCRASQDIGSELHWYQQKPDQPPKLLIKYASHSTSGVPSRFSGSGSGTDFTLTINGLEAEDAGTYYCHQTDSLPYTFGPGTKVDIKRTVAAPSVFIFPPSDEQLKSGTASVVCLLNNFYPREAKVQWKVDNALQSGNSQESVTEQDSKDSTYSLSSTLTLSKADYEKHKVYACEVTHQGLSSPVTKSFNRGEC"
0.22 nM,0.12 nM,"DVD2437 (bispecific antibody, human IgG1) heavy: EVQLQESGPGLVKPSETLSLTCTVSGFSLSDYGVSWIRQPPGKGLEWLGLIWGGGDTYYNSPLKSRLTISKDNSKSQVSLKLSSVTAADTAVYYCAKQRTLWGYDLYGMDYWGQGTLVTVSSASTKGPSVFPLAPEVQLVQSGAEVKKPGSSVKVSCKASGGSFGGYGIGWVRQAPGQGLEWMGGITPFFGFADYAQKFQGRVTITADESTTTAYMELSGLTSDDTAVYYCARDPNEFWGGYYSTHDFDSWGQGTTVTVSS[human IgG1 constant region left out] light: DTVVTQSPAFLSVTPGEKVTITCITSTDIDVDMNWYQQKPDQPPKLLISQGNTLRPGVPSRFSSSGSGTDFTFTISSLEAEDAATYYCLQSDNLPLTFGQGTKLEIKRTVAAPEIVLTQSPDFQSVTPKEKVTITCRASQDIGSELHWYQQKPDQPPKLLIKYASHSTSGVPSRFSGSGSGTDFTLTINGLEAEDAGTYYCHQTDSLPYTFGPGTKVDIKRTVAAPSVFIFPPSDEQLKSGTASVVCLLNNFYPREAKVQWKVDNALQSGNSQESVTEQDSKDSTYSLSSTLTLSKADYEKHKVYACEVTHQGLSSPVTKSFNRGEC"
0.215 nM,0.043 nM,"DVD2442 (bispecific antibody, human IgG1) heavy: EVQLVESGGGLVQPGGSLRLSCAVSGFTLSDYGVSWIRQAPGKGLEWLGLIWGGGDTYYNSPLKSRLTISKDNSKSTVYLQMNSLRAEDTAVYYCAKQRTLWGYDLYGMDYWGQGTLVTVSSASTKGPSVFPLAPEVQLVQSGAEVKKPGSSVKVSCKASGGSFGGYGIGWVRQAPGQGLEWMGGITPFFGFADYAQKFQGRVTITADESTTTAYMELSGLTSDDTAVYYCARDPNEFWGGYYSTHDFDSWGQGTTVTVSS[human IgG1 constant region left out] light: ETTVTQSPSSLSASVGDRVTITCITSTDIDVDMNWYQQKPGKPPKLLISQGNTLRPGVPSRFSSSGSGTDFTFTISSLQPEDFATYYCLQSDNLPLTFGQGTKLEIKRTVAAPSVFIFPPEIVLTQSPDFQSVTPKEKVTITCRASQDIGSELHWYQQKPDQPPKLLIKYASHSTSGVPSRFSGSGSGTDFTLTINGLEAEDAGTYYCHQTDSLPYTFGPGTKVDIKRTVAAPSVFIFPPSDEQLKSGTASVVCLLNNFYPREAKVQWKVDNALQSGNSQESVTEQDSKDSTYSLSSTLTLSKADYEKHKVYACEVTHQGLSSPVTKSFNRGEC"
0.182 nM,0.032 nM,"DVD2438 (bispecific antibody, human IgG1) heavy: EVQLQESGPGLVKPSETLSLTCTVSGFSLSDYGVSWIRQPPGKGLEWLGLIWGGGDTYYNSPLKSRLTISKDNSKSQVSLKLSSVTAADTAVYYCAKQRTLWGYDLYGMDYWGQGTLVTVSSASTKGPSVFPLAPEVQLVQSGAEVKKPGSSVKVSCKASGGSFGGYGIGWVRQAPGQGLEWMGGITPFFGFADYAQKFQGRVTITADESTTTAYMELSGLTSDDTAVYYCARDPNEFWGGYYSTHDFDSWGQGTTVTVSS[human IgG1 constant region left out] light: DTVVTQSPAFLSVTPGEKVTITCITSTDIDVDMNWYQQKPDQPPKLLISQGNTLRPGVPSRFSSSGSGTDFTFTISSLEAEDAATYYCLQSDNLPLTFGQGTKLEIKRTVAAPSVFIFPPEIVLTQSPDFQSVTPKEKVTITCRASQDIGSELHWYQQKPDQPPKLLIKYASHSTSGVPSRFSGSGSGTDFTLTINGLEAEDAGTYYCHQTDSLPYTFGPGTKVDIKRTVAAPSVFIFPPSDEQLKSGTASVVCLLNNFYPREAKVQWKVDNALQSGNSQESVTEQDSKDSTYSLSSTLTLSKADYEKHKVYACEVTHQGLSSPVTKSFNRGEC"
